Experimental findings from patent publication US20150038430A1 (published 2015) are described below.

This experiment addresses SP-6 BIM wild-type (unstapled). As to the kind of experiment: MS-based binding affinity.

SP-6 BIM wild-type (unstapled), sequence (Q07817 1-212): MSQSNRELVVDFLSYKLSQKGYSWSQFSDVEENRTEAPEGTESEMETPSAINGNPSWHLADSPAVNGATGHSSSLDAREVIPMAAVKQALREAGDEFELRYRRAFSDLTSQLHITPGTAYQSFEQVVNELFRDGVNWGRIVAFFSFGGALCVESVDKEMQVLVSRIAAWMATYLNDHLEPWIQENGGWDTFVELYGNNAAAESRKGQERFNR

B1: Bcl-xL (other)
chain: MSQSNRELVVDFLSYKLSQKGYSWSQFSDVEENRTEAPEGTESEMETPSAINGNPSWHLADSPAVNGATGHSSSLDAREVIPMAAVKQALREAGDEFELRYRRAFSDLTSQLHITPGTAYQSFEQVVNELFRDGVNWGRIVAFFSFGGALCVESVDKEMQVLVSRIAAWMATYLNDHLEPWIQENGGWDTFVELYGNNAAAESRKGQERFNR
By Kd is commonly meant the equilibrium constant for the complex coming apart. The low end stands for a tighter complex, the high end for a looser complex. Turning to B1, the Kd was less than 100 nM.
